By IC50 is meant the dose at which the fit gives 50% viability; a limit (>, <) means that the fit lies beyond the doses tested. For AUC the same curve is integrated over the 256-fold range of doses and scaled to a fraction; the more sensitive the line, the further below 1. For some assays here: The top dose, if marked as inferred, was calculated from the reported fits.
Assays:
Experiment in all cases: Viability of human cancer cell lines after 72 h of drug (GDSC screen)
WHI-P97 = compound: COc1cc2ncnc(Nc3cc(Br)c(O)c(Br)c3)c2cc1OC [WHI-P97]; conditions: top dose 10.24 µM; top dose inferred
Method: (§1)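 Human cancer cell lines in 384-well plates, medium with 10% serum, drug for 72 h over a 256-fold dose range (nine 2-fold or five 4-fold steps up to the top dose). Adherent lines were fixed and stained with the nucleic acid dye Syto60, suspension lines read with resazurin; signal relative to control wells, capped at 0 and 100%. One two-parameter sigmoid per drug and line, fitted in a mixed model over all curves with the slope shared within a line.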

Phenformin = compound: N=C(N)NC(=N)NCCc1ccccc1 [Phenformin]; conditions: top dose 4000 µM; top dose inferred
Method: as §1

AG-014699 = compound: CNCc1ccc(-c2[nH]c3cc(F)cc4c3c2CCNC4=O)cc1 [AG-014699]; conditions: top dose 5 µM; top dose inferred
Method: as §1

QL-XI-92 = compound: C=CC(=O)Nc1cc(NC(=O)c2ccc(C)c(NC(=O)c3ccno3)c2)cc(C(F)(F)F)c1 [QL-XI-92]; conditions: top dose 10.24 µM; top dose inferred
Method: as §1

Gefitinib = compound: COc1cc2ncnc(Nc3ccc(F)c(Cl)c3)c2cc1OCCCN1CCOCC1 [Gefitinib]; conditions: top dose 0.5 µM
Method: as §1

EHT 1864 = compound: O=c1cc(CN2CCOCC2)occ1OCCCCCSc1ccnc2cc(C(F)(F)F)ccc12 [EHT 1864]; conditions: top dose 10 µM; top dose inferred
Method: as §1

NU-7441 = compound: O=c1cc(N2CCOCC2)oc2c(-c3cccc4c3sc3ccccc34)cccc12 [NU-7441]; conditions: top dose 2 µM; top dose inferred
Method: as §1

Vinorelbine = compound: CCC1=C[C@@H]2CN(C1)Cc1c([nH]c3ccccc13)[C@@](C(=O)OC)(c1cc3c(cc1OC)N(C)[C@H]1[C@@](O)(C(=O)OC)[C@H](OC(C)=O)[C@]4(CC)C=CCN5CC[C@]31[C@@H]54)C2 [Vinorelbine]; conditions: top dose 0.064 µM; top dose inferred
Method: as §1

XL-184 = compound: COc1cc2nccc(Oc3ccc(NC(=O)C4(C(=O)Nc5ccc(F)cc5)CC4)cc3)c2cc1OC [XL-184]; conditions: top dose 5.12 µM; top dose inferred
Method: as §1

Row | Cell Line | AUC (WHI-P97) | IC50 (WHI-P97) [µM] | AUC (Phenformin) | IC50 (Phenformin) [µM] | AUC (AG-014699) | IC50 (AG-014699) [µM] | AUC (QL-XI-92) | IC50 (QL-XI-92) [µM] | AUC (Gefitinib) | IC50 (Gefitinib) [µM] | AUC (EHT 1864) | IC50 (EHT 1864) [µM] | AUC (NU-7441) | IC50 (NU-7441) [µM] | AUC (Vinorelbine) | IC50 (Vinorelbine) [µM] | AUC (XL-184) | IC50 (XL-184) [µM]
1 | EFO-27 (ovary, adherent) | 0.83 | 8.81 | 0.835 | 3620 | 0.969 | > 5 | 0.972 | > 10.2 | 0.817 | 0.374 | 0.925 | > 10 | 0.905 | > 2 | 0.577 | 0.00687 | 0.943 | > 5.12
2 | EGI-1 (biliary tract, adherent) | 0.975 | > 10.2 | 0.795 | 2510 | 0.981 | > 5 | 0.956 | > 10.2 | 0.96 | > 0.5 | 0.946 | > 10 | 0.928 | > 2 | 0.839 | > 0.064 | 0.884 | > 5.12
3 | EN (endometrium, adherent) | 0.98 | > 10.2 | 0.784 | 2200 | 0.984 | > 5 | 0.979 | > 10.2 | 0.984 | > 0.5 | 0.959 | > 10 | 0.984 | > 2 | 0.768 | 0.0304 | 0.904 | > 5.12
4 | ESS-1 (endometrium, adherent) | 0.99 | > 10.2 | 0.987 | > 4000 | 0.936 | > 5 | 0.919 | > 10.2 | 0.983 | > 0.5 | 0.987 | > 10 | 0.978 | > 2 | 0.549 | 0.00536 | 0.99 | > 5.12
5 | EW-7 (Ewing sarcoma, semi-adherent) | 0.953 | > 10.2 | 0.396 | 134 | 0.983 | > 5 | 0.964 | > 10.2 | 0.974 | > 0.5 | 0.985 | > 10 | 0.97 | > 2 | 0.737 | 0.0172 | 0.847 | 3.1
6 | FADU (head and neck, adherent) | 0.963 | > 10.2 | 0.84 | 2620 | 0.908 | > 5 | 0.987 | > 10.2 | 0.77 | 0.183 | 0.966 | > 10 | 0.947 | > 2 | 0.817 | 0.034 | 0.981 | > 5.12
7 | FTC-133 (thyroid, adherent) | 0.984 | > 10.2 | 0.926 | > 4000 | 0.943 | > 5 | 0.982 | > 10.2 | 0.965 | > 0.5 | 0.973 | > 10 | 0.926 | > 2 | 0.907 | > 0.064 | 0.986 | > 5.12
8 | FU97 (stomach, adherent) | 0.978 | > 10.2 | 0.725 | 1110 | 0.965 | > 5 | 0.984 | > 10.2 | 0.975 | > 0.5 | 0.798 | 4.92 | 0.938 | > 2 | 0.91 | > 0.064 | 0.888 | > 5.12
9 | FU-OV-1 (ovary, adherent) | 0.915 | > 10.2 | 0.821 | 3330 | 0.976 | > 5 | 0.982 | > 10.2 | 0.954 | > 0.5 | 0.966 | > 10 | 0.958 | > 2 | 0.855 | > 0.064 | 0.883 | > 5.12
10 | G-361 (melanoma, adherent) | 0.969 | > 10.2 | 0.36 | 104 | 0.988 | > 5 | 0.988 | > 10.2 | 0.988 | > 0.5 | 0.925 | > 10 | 0.975 | > 2 | 0.506 | 0.00416 | 0.961 | > 5.12
11 | G-401 (kidney, adherent) | 0.948 | > 10.2 | 0.316 | 72.2 | 0.939 | > 5 | 0.926 | > 10.2 | 0.983 | > 0.5 | 0.921 | > 10 | 0.95 | > 2 | 0.567 | 0.00623 | 0.842 | 4.12
12 | GMS-10 (glioma, adherent) | 0.988 | > 10.2 | 0.81 | 2080 | 0.945 | > 5 | 0.988 | > 10.2 | 0.984 | > 0.5 | 0.94 | > 10 | 0.956 | > 2 | 0.894 | > 0.064 | 0.984 | > 5.12
13 | H4 (glioma, adherent) | 0.975 | > 10.2 | 0.837 | 2630 | 0.852 | 3.81 | 0.961 | > 10.2 | 0.985 | > 0.5 | 0.947 | > 10 | 0.967 | > 2 | 0.608 |  | 0.901 | > 5.12
14 | H513 (mesothelioma, semi-adherent) | 0.968 | > 10.2 | 0.79 | 2230 | 0.986 | > 5 | 0.986 | > 10.2 | 0.971 | > 0.5 | 0.962 | > 10 | 0.981 | > 2 | 0.964 | > 0.064 | 0.985 | > 5.12
15 | H2369 (mesothelioma, adherent) | 0.981 | > 10.2 | 0.973 | > 4000 | 0.987 | > 5 | 0.983 | > 10.2 | 0.98 | > 0.5 | 0.93 | > 10 | 0.979 | > 2 | 0.518 | 0.00448 | 0.978 | > 5.12
16 | H2373 (mesothelioma, adherent) | 0.978 | > 10.2 | 0.936 | > 4000 | 0.983 | > 5 | 0.936 | > 10.2 | 0.981 | > 0.5 | 0.983 | > 10 | 0.946 | > 2 | 0.855 | > 0.064 | 0.921 | > 5.12
17 | H2461 (mesothelioma, adherent) | 0.981 | > 10.2 | 0.965 | > 4000 | 0.955 | > 5 | 0.983 | > 10.2 | 0.983 | > 0.5 | 0.982 | > 10 | 0.983 | > 2 | 0.951 | > 0.064 | 0.983 | > 5.12
18 | H2595 (mesothelioma, adherent) | 0.97 | > 10.2 | 0.929 | > 4000 | 0.98 | > 5 | 0.94 | > 10.2 | 0.972 | > 0.5 | 0.914 | > 10 | 0.966 | > 2 | 0.736 | 0.0251 | 0.95 | > 5.12
19 | H2731 (mesothelioma, adherent) | 0.879 | > 10.2 | 0.984 | > 4000 | 0.984 | > 5 | 0.879 | > 10.2 | 0.984 | > 0.5 | 0.936 | > 10 | 0.98 | > 2 | 0.914 | > 0.064 | 0.717 | 1.45
20 | H2795 (mesothelioma, adherent) | 0.903 | > 10.2 | 0.895 | > 4000 | 0.982 | > 5 | 0.884 | > 10.2 | 0.963 | > 0.5 | 0.909 | > 10 | 0.957 | > 2 | 0.893 | > 0.064 | 0.876 | 4.94
21 | H2869 (mesothelioma, adherent) | 0.983 | > 10.2 | 0.977 | > 4000 | 0.984 | > 5 | 0.92 | > 10.2 | 0.984 | > 0.5 | 0.956 | > 10 | 0.974 | > 2 | 0.634 | 0.0103 | 0.884 | > 5.12
22 | H3118 (head and neck, adherent) | 0.83 | 7.24 | 0.769 | 1650 | 0.955 | > 5 | 0.974 | > 10.2 | 0.504 | 0.0322 | 0.862 | 9.94 | 0.957 | > 2 | 0.504 | 0.00411 | 0.89 | > 5.12
23 | HARA (lung squamous cell carcinoma, adherent) | 0.933 | > 10.2 | 0.812 | 2600 | 0.919 | > 5 | 0.948 | > 10.2 | 0.727 | 0.156 | 0.916 | > 10 | 0.959 | > 2 | 0.635 | 0.0101 | 0.924 | > 5.12
24 | HCC38 (breast, adherent) | 0.913 | > 10.2 | 0.72 | 1110 | 0.978 | > 5 | 0.98 | > 10.2 | 0.976 | > 0.5 | 0.972 | > 10 | 0.978 | > 2 | 0.542 | 0.00525 | 0.941 | > 5.12
25 | HCC1143 (breast, adherent) | 0.879 | > 10.2 | 0.65 | 772 | 0.971 | > 5 | 0.958 | > 10.2 | 0.932 | > 0.5 | 0.969 | > 10 | 0.955 | > 2 | 0.888 | > 0.064 | 0.807 | 4.03
26 | HCC1395 (breast, adherent) | 0.978 | > 10.2 | 0.83 | 3250 | 0.98 | > 5 | 0.967 | > 10.2 | 0.985 | > 0.5 | 0.964 | > 10 | 0.956 | > 2 | 0.579 | 0.00687 | 0.958 | > 5.12
27 | HCC1419 (breast, adherent) | 0.958 | > 10.2 | 0.763 | 2050 | 0.982 | > 5 | 0.964 | > 10.2 | 0.96 | > 0.5 | 0.862 | > 10 | 0.981 | > 2 | 0.848 | > 0.064 | 0.982 | > 5.12
28 | HCC1428 (breast, adherent) | 0.981 | > 10.2 | 0.943 | > 4000 | 0.986 | > 5 | 0.974 | > 10.2 | 0.98 | > 0.5 | 0.981 | > 10 | 0.967 | > 2 | 0.933 | > 0.064 | 0.987 | > 5.12
29 | HCC1569 (breast, adherent) | 0.953 | > 10.2 | 0.943 | > 4000 | 0.916 | > 5 | 0.921 | > 10.2 | 0.979 | > 0.5 | 0.915 | > 10 | 0.97 | > 2 | 0.551 | 0.00579 | 0.969 | > 5.12
30 | HCC1937 (breast, adherent) | 0.919 | > 10.2 | 0.856 | > 4000 | 0.96 | > 5 | 0.951 | > 10.2 | 0.967 | > 0.5 | 0.948 | > 10 | 0.975 | > 2 | 0.882 | > 0.064 | 0.973 | > 5.12
